# Assay results as given in the supplement of paper PMC8728848.
# This is one part of the list.
# B1: PX9961J-bvu-499-24-499 (Bacteroides vulgatus) (protein)
# chain: LNTDPSTAVPSDDAIKNIDDAQVALNGIYRLASAHSYYGDNYLYYADCRGEDVQARINKGAGRRVSPYYFFDVTADDNFNITLVWNQPYKVIHQANSLIEKLDAGNAGNARPEEVARIKSEALAMRGLALFDLTRLFGMPYTLDNGASLGVPIEIQTTLEDHAPERNTVAQCYEQVLKDLNDALGGLTKEKHDAYMNYWSVKALLSRVYLYMNDNENALKCAEEVINDNGGIYRLFTHDEYPSVWGKDFNSESLFEFYFTMSEPSGGSGGEGAPMVYADNVKDWNNLILTKAYLDLLNEDPEDVRHVFPHLPENAVADTLPVAAKGQPKYLIKYPGKSGSVTDAVSTVNPQDNDLCILRLSEVYLNAAEAAFKIGNTEKALTYLNAIVTRANPAKSVTSADLSLERILKERRKELVGEGHAFFDYMRNGKSVDRSGGWHLTMPEDARVIAPSDPRVALPIPQTEIDANPNIVQNPR
# Columns and labels:
# Test in all cases: glycan array binding signal (z-score within array); higher = stronger binding
# Settings in all cases: glycan notation: IUPAC condensed, linker removed
# [1] = molecular target: Neu5Ac(a2-3)Gal(b1-4)GlcNAc(b1-3)Gal(b1-4)GlcNAc(b1-3)Gal(b1-4)GlcNAc
# Outline: (§1)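 Glycan array binding is given as a within-array Z-score, which can be read as non-binding when negative. The arrays, 3228 of them, came from the Consortium for Functional Glycomics database and were retained only where the protein sequence was available. Z-scores were averaged across arrays of the same protein sequence at different concentrations or buffers and across linkers.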
# [2] = molecular target: Neu5Ac(a2-3)Gal(b1-4)GlcNAc(b1-3)Gal(b1-4)GlcNAc(b1-3)Gal(b1-4)GlcNAc(b1-2)Man(a1-3)[Neu5Ac(a2-3)Gal(b1-4)GlcNAc(b1-3)Gal(b1-4)GlcNAc(b1-3)Gal(b1-4)GlcNAc(b1-2)Man(a1-6)]GalNAc
# Outline: as §1
# [3] = molecular target: Neu5Ac(a2-3)Gal(b1-4)GlcNAc(b1-3)Gal(b1-4)GlcNAc(b1-3)GalNAc
# Outline: as §1
# [4] = molecular target: Neu5Ac(a2-3)Gal(b1-4)GlcNAc(b1-3)Gal(b1-4)GlcNAc(b1-3)[Neu5Ac(a2-3)Gal(b1-4)GlcNAc(b1-3)Gal(b1-4)GlcNAc(b1-6)]GalNAc
# Outline: as §1
# [5] = molecular target: Neu5Ac(a2-3)Gal(b1-4)GlcNAc(b1-3)Gal(b1-4)GlcNAc(b1-6)[Gal(b1-3)]GalNAc
# Outline: as §1
# [6] = molecular target: Neu5Ac(a2-3)Gal(b1-4)GlcNAc(b1-3)Gal(b1-4)[Fuc(a1-3)]GlcNAc
# Outline: as §1
# [7] = molecular target: Neu5Ac(a2-3)Gal(b1-4)GlcNAc(b1-3)GalNAc
# Outline: as §1
# [8] = molecular target: Neu5Ac(a2-3)Gal(b1-4)GlcNAc(b1-3)[Neu5Ac(a2-3)Gal(b1-4)GlcNAc(b1-6)]GalNAc
# Outline: as §1
# [9] = molecular target: Neu5Ac(a2-3)Gal(b1-4)GlcNAc(b1-6)GalNAc
# Outline: as §1
# [10] = molecular target: Neu5Ac(a2-3)Gal(b1-4)GlcNAc(b1-6)[Gal(b1-3)]GalNAc
# Outline: as §1
# [11] = molecular target: Neu5Ac(a2-3)Gal(b1-4)GlcNAc(b1-6)[Neu5Ac(a2-3)Gal(b1-3)]GalNAc
# Outline: as §1
# [12] = molecular target: Neu5Ac(a2-3)Gal(b1-4)GlcNAc6S
# Outline: as §1
# [13] = molecular target: Neu5Ac(a2-3)Gal(b1-4)[Fuc(a1-3)]GlcNAc
# Outline: as §1
# [14] = molecular target: Neu5Ac(a2-3)Gal(b1-4)[Fuc(a1-3)]GlcNAc(b1-2)Man
# Outline: as §1
# [15] = molecular target: Neu5Ac(a2-3)Gal(b1-4)[Fuc(a1-3)]GlcNAc(b1-3)Gal
# Outline: as §1
# [16] = molecular target: Neu5Ac(a2-3)Gal(b1-4)[Fuc(a1-3)]GlcNAc(b1-3)Gal(b1-4)GlcNAc
# Outline: as §1
# [17] = molecular target: Neu5Ac(a2-3)Gal(b1-4)[Fuc(a1-3)]GlcNAc(b1-3)Gal(b1-4)[Fuc(a1-3)]GlcNAc(b1-3)Gal(b1-4)[Fuc(a1-3)]GlcNAc
# Outline: as §1
# [18] = molecular target: Neu5Ac(a2-3)Gal(b1-4)[Fuc(a1-3)]GlcNAc(b1-3)GalNAc
# Outline: as §1
# [19] = molecular target: Neu5Ac(a2-3)Gal(b1-4)[Fuc(a1-3)]GlcNAc(b1-6)[Gal(b1-3)]GalNAc
# Outline: as §1
# [20] = molecular target: Neu5Ac(a2-3)Gal(b1-4)[Fuc(a1-3)]GlcNAc(b1-6)[Neu5Ac(a2-3)Gal(b1-3)]GalNAc
# Outline: as §1
# [21] = molecular target: Neu5Ac(a2-3)Gal(b1-4)[Fuc(a1-3)]GlcNAc6S
# Outline: as §1
# [22] = molecular target: Neu5Ac(a2-3)Gal6S(b1-4)GlcNAc
# Outline: as §1
# [23] = molecular target: Neu5Ac(a2-3)Gal6S(b1-4)[Fuc(a1-3)]GlcNAc
# Outline: as §1
# Neu5Ac(a2-3)GalNAc = molecular target: Neu5Ac(a2-3)GalNAc
# Outline: as §1
# [24] = molecular target: Neu5Ac(a2-3)GalNAc(b1-4)GlcNAc
# Outline: as §1
# [25] = molecular target: Neu5Ac(a2-3)[GalNAc(b1-4)]Gal(b1-4)Glc
# Outline: as §1
# [26] = molecular target: Neu5Ac(a2-3)[GalNAc(b1-4)]Gal(b1-4)GlcNAc
# Outline: as §1
# [27] = molecular target: Neu5Ac(a2-3)[GalNAc(b1-4)]Gal(b1-4)GlcNAc(b1-3)GalNAc
# Outline: as §1
# [28] = molecular target: Neu5Ac(a2-3)[Neu5Ac(a2-6)]GalNAc
# Outline: as §1
# Neu5Ac(a2-6)Gal = molecular target: Neu5Ac(a2-6)Gal
# Outline: as §1
# [29] = molecular target: Neu5Ac(a2-6)Gal(b1-3)GlcNAc(b1-3)[Gal(b1-4)GlcNAc(b1-6)]Gal(b1-4)Glc
# Outline: as §1
# Neu5Ac(a2-6)Gal(b1-4)Glc = molecular target: Neu5Ac(a2-6)Gal(b1-4)Glc
# Outline: as §1
# [30] = molecular target: Neu5Ac(a2-6)Gal(b1-4)GlcNAc
# Outline: as §1
# [31] = molecular target: Neu5Ac(a2-6)Gal(b1-4)GlcNAc(b1-2)Man
# Outline: as §1
# [32] = molecular target: Neu5Ac(a2-6)Gal(b1-4)GlcNAc(b1-2)Man(a1-3)Man(b1-4)GlcNAc(b1-4)GlcNAc
# Outline: as §1
# [33] = molecular target: Neu5Ac(a2-6)Gal(b1-4)GlcNAc(b1-2)Man(a1-3)[Gal(b1-4)GlcNAc(b1-2)Man(a1-6)]Man(b1-4)GlcNAc(b1-4)GlcNAc
# Outline: as §1
# [34] = molecular target: Neu5Ac(a2-6)Gal(b1-4)GlcNAc(b1-2)Man(a1-3)[GlcNAc(b1-2)Man(a1-6)]Man(b1-4)GlcNAc(b1-4)GlcNAc
# Outline: as §1
# [35] = molecular target: Neu5Ac(a2-6)Gal(b1-4)GlcNAc(b1-2)Man(a1-3)[GlcNAc(b1-4)][Neu5Ac(a2-6)Gal(b1-4)GlcNAc(b1-2)Man(a1-6)]Man(b1-4)GlcNAc(b1-4)GlcNAc
# Outline: as §1
binder,measurement,setting,value
B1,glycan array binding signal (z-score),[1],0.076
same,glycan array binding signal (z-score),[2],0.549
same,glycan array binding signal (z-score),[3],0.477
same,glycan array binding signal (z-score),[4],-0.391
same,glycan array binding signal (z-score),[5],-0.727
same,glycan array binding signal (z-score),[6],-0.587
same,glycan array binding signal (z-score),[7],-0.316
same,glycan array binding signal (z-score),[8],-0.509
same,glycan array binding signal (z-score),[9],0.228
same,glycan array binding signal (z-score),[10],-0.033
same,glycan array binding signal (z-score),[11],-0.467
same,glycan array binding signal (z-score),[12],0.992
same,glycan array binding signal (z-score),[13],-0.732
same,glycan array binding signal (z-score),[14],-0.099
same,glycan array binding signal (z-score),[15],-0.441
same,glycan array binding signal (z-score),[16],-0.556
same,glycan array binding signal (z-score),[17],-0.297
same,glycan array binding signal (z-score),[18],0.272
same,glycan array binding signal (z-score),[19],-0.279
same,glycan array binding signal (z-score),[20],1.88
same,glycan array binding signal (z-score),[21],0.162
same,glycan array binding signal (z-score),[22],-0.275
same,glycan array binding signal (z-score),[23],-0.101
same,glycan array binding signal (z-score),Neu5Ac(a2-3)GalNAc,-0.625
same,glycan array binding signal (z-score),[24],-0.474
same,glycan array binding signal (z-score),[25],-0.277
same,glycan array binding signal (z-score),[26],-0.251
same,glycan array binding signal (z-score),[27],-0.342
same,glycan array binding signal (z-score),[28],-0.372
same,glycan array binding signal (z-score),Neu5Ac(a2-6)Gal,-0.231
same,glycan array binding signal (z-score),[29],-0.441
same,glycan array binding signal (z-score),Neu5Ac(a2-6)Gal(b1-4)Glc,-0.193
same,glycan array binding signal (z-score),[30],-0.389
same,glycan array binding signal (z-score),[31],-0.695
same,glycan array binding signal (z-score),[32],0.368
same,glycan array binding signal (z-score),[33],0.647
same,glycan array binding signal (z-score),[34],0.716
same,glycan array binding signal (z-score),[35],-0.178
